Measurements as given in patent US20110124589A1, “INHALED FOSFOMYCIN/TOBRAMYCIN FOR THE TREATMENT OF CHRONIC OBSTRUCTIVE PULMONARY DISEASE” (Gilead Sciences, Inc., priority 2009, published 2011).

How the values were obtained:
Enterobacter spp = experiment: MIC of recent clinical isolates, agar dilution (CMI study); format: cell-based; details: 603 isolates
[1] = test system: P. aeruginosa protein synthesis; experiment: Protein synthesis, incorporation of 3H amino acids; format: cell-based, P. aeruginosa ATCC 27853; details: fosfomycin 6.4 μg/mL, tobramycin 1.6 μg/mL; for T1/2, time to inhibit 50% of protein synthesis: FTI 6.4-1.6 μg/mL, 2% mucin; for protein synthesis inhibition relative to FTI: after 60 and 90 minutes of drug exposure
P. aeruginosa ATCC 27853 [2] = experiment: Bacterial uptake of 3H-tobramycin; format: cell-based; details: addition of 10 μg/mL fosfomycin; 3H-tobramycin 2.3 mg/L
P. aeruginosa ATCC 27853 [3] = experiment: Single-step spontaneous mutation frequency; format: cell-based; details: for MIC: Pseudomonas aeruginosa, ATCC27853; for Mutation Frequency 4X MIC / Mutation Frequency 8X MIC / Mutation Frequency 16X MIC: single exposure, 48 hr
S. aureus ATCC 29213 [4] = experiment: Single-step spontaneous mutation frequency; format: cell-based; details: for MIC: Staphylococcus aureus, ATCC29213; for Mutation Frequency 4X MIC / Mutation Frequency 8X MIC / Mutation Frequency 16X MIC: single exposure, 48 hr
P. aeruginosa [5] = experiment: microbe, parasite or virus in culture; format: cell-based
S. aureus = details: 16 isolates; agar dilution; cited from earlier work
E. faecalis = details: 5 isolates; agar dilution; cited from earlier work
E. coli = details: 22 isolates; agar dilution; cited from earlier work
S. maltophilia = details: 17 isolates; agar dilution; cited from earlier work
S. pneumoniae = details: cited from earlier work; for Range of MBC/MIC: 7 strains
P. aeruginosa [6] = details: cited from earlier work
[7] = test system: E. coli, Proteus spp., Salmonella spp., Shigella spp., and S. marcescens; details: cited from earlier work
E. coli ATCC 25922 = experiment: MBC/MIC, broth microdilution
S. aureus ATCC 29213 [8] = experiment: MBC/MIC, broth microdilution
P. aeruginosa [9] = experiment: MIC, agar-plate dilution (Method A); details: Pseudomonas aeruginosa; for MIC50: read-out: MIC50 Mucin (−)
M. catarrhalis = experiment: MIC, agar-plate dilution (Method A)
[10] = test system: S. aureus, S. pneumoniae, P. aeruginosa, E. coli, Klebsiella spp. and H. influenzae strains; details: all strains tested; cited from earlier work
[11] = test system: susceptible P. aeruginosa; details: typical values; cited from earlier work
[12] = after parenteral administration; cited from earlier work

C[C@@H]1O[C@@H]1P(=O)(O)O [Fosfomycin]
MIC50 (Enterobacter spp): 2 µg/mL
MIC90 (Enterobacter spp): 32 µg/mL
T1/2, time to inhibit 50% of protein synthesis [1]: 2.42 h
protein synthesis inhibition relative to FTI [1]: poor protein synthesis inhibition
increase in 3H-tobramycin uptake relative to the no-fosfomycin control (P. aeruginosa ATCC 27853 [2]): 170%
MIC (P. aeruginosa ATCC 27853 [3]): 4 µg/mL (≈ 29 µM)
Mutation Frequency 4X MIC (P. aeruginosa ATCC 27853 [3]): 7.2 × 10^−4
Mutation Frequency 8X MIC (P. aeruginosa ATCC 27853 [3]): 1.1 × 10^−5
Mutation Frequency 16X MIC (P. aeruginosa ATCC 27853 [3]): 7.2 × 10^−5
MIC (S. aureus ATCC 29213 [4]): 2 µg/mL (≈ 14.5 µM)
Mutation Frequency 4X MIC (S. aureus ATCC 29213 [4]): 2.6 × 10^−8
Mutation Frequency 8X MIC (S. aureus ATCC 29213 [4]): 5.0 × 10^−8
Mutation Frequency 16X MIC (S. aureus ATCC 29213 [4]): <1.8 × 10^−10
Mutation Frequency 4x MIC (P. aeruginosa [5]; Mucin + (2%)): 7 × 10^−6
Mutation Frequency 8x MIC (P. aeruginosa [5]; Mucin + (2%)): 3 × 10^−6
Mutation Frequency 16x MIC (P. aeruginosa [5]; Mucin + (2%)): 3 × 10^−6
Mutation Frequency 32x MIC (P. aeruginosa [5]; Mucin + (2%)): 2 × 10^−6
Mutation Frequency 4x MIC (P. aeruginosa [5]; Mucin −): 3 × 10^−5
Mutation Frequency 8x MIC (P. aeruginosa [5]; Mucin −): 8 × 10^−6
Mutation Frequency 16x MIC (P. aeruginosa [5]; Mucin −): 3 × 10^−6
Mutation Frequency 32x MIC (P. aeruginosa [5]; Mucin −): 3 × 10^−6
MIC (P. aeruginosa [5]; Pseudomonas aeruginosa): 4 µg/mL (≈ 29 µM)
MIC50 (S. aureus): 2 µg/mL (≈ 14.5 µM)
MIC90 (S. aureus): 4 µg/mL (≈ 29 µM)
MIC range (S. aureus): 0.125 to 16 µg/mL
MIC range (E. faecalis): 32 µg/mL (≈ 232 µM)
MIC50 (E. coli): 0.5 µg/mL (≈ 3.62 µM)
MIC90 (E. coli): 2 µg/mL (≈ 14.5 µM)
MIC range (E. coli): 0.25 to 4 µg/mL
MIC50 (S. maltophilia): 64 µg/mL (≈ 464 µM)
MIC90 (S. maltophilia): 128 µg/mL (≈ 927 µM)
Range of MBC/MIC (S. pneumoniae): 1-16
strains against which bactericidal (S. pneumoniae): 86%
strains against which bactericidal (P. aeruginosa [6]): 78%
Range of MBC/MIC (P. aeruginosa [6]; non-CF, 10 strains): 2-8
fosfomycin concentrations at which generally inhibited [7]: 64 µg/mL
MBC/MIC (E. coli ATCC 25922): 8
MBC/MIC (S. aureus ATCC 29213 [8]): 1
MIC50 (P. aeruginosa [9]): 64 µg/mL (≈ 464 µM)
MIC (P. aeruginosa [9]; strain COR-003): 16 µg/mL (≈ 116 µM)
MIC (P. aeruginosa [9]; strain COR-021): 8 µg/mL (≈ 57.9 µM)
MIC (M. catarrhalis; Moraxella catarrhalis): 4 µg/mL (≈ 29 µM)
MIC (M. catarrhalis; strain COR-113): 4 µg/mL (≈ 29 µM)

NC[C@H]1O[C@H](O[C@H]2[C@H](O)[C@@H](O[C@H]3O[C@H](CO)[C@@H](O)[C@H](N)[C@H]3O)[C@H](N)C[C@@H]2N)[C@H](N)C[C@@H]1O [Tobramycin]
MIC50 (Enterobacter spp): 0.5 µg/mL
MIC90 (Enterobacter spp): 8 µg/mL
T1/2, time to inhibit 50% of protein synthesis [1]: > 3 h
protein synthesis inhibition relative to FTI [1]: poor protein synthesis inhibition
MIC (P. aeruginosa ATCC 27853 [3]): 0.5 µg/mL (≈ 1.07 µM)
Mutation Frequency 4X MIC (P. aeruginosa ATCC 27853 [3]): 3.0 × 10^−5
Mutation Frequency 8X MIC (P. aeruginosa ATCC 27853 [3]): 2.2 × 10^−7
Mutation Frequency 16X MIC (P. aeruginosa ATCC 27853 [3]): 1.6 × 10^−8
MIC (S. aureus ATCC 29213 [4]): 0.25 µg/mL (≈ 0.535 µM)
Mutation Frequency 4X MIC (S. aureus ATCC 29213 [4]): 1.6 × 10^−7
Mutation Frequency 8X MIC (S. aureus ATCC 29213 [4]): 3.9 × 10^−8
Mutation Frequency 16X MIC (S. aureus ATCC 29213 [4]): <1.8 × 10^−10
Mutation Frequency 4x MIC (P. aeruginosa [5]; Mucin + (2%)): no effect
Mutation Frequency 8x MIC (P. aeruginosa [5]; Mucin + (2%)): no effect
Mutation Frequency 16x MIC (P. aeruginosa [5]; Mucin + (2%)): 2 × 10^−5
Mutation Frequency 32x MIC (P. aeruginosa [5]; Mucin + (2%)): 2 × 10^−6
Mutation Frequency 4x MIC (P. aeruginosa [5]; Mucin −): 4 × 10^−7
Mutation Frequency 8x MIC (P. aeruginosa [5]; Mucin −): 9 × 10^−8
Mutation Frequency 16x MIC (P. aeruginosa [5]; Mucin −): >5 × 10^−9
Mutation Frequency 32x MIC (P. aeruginosa [5]; Mucin −): >5 × 10^−9
MIC50 (S. aureus): 0.5 µg/mL (≈ 1.07 µM)
MIC90 (S. aureus): 256 µg/mL (≈ 548 µM)
MIC50 (E. coli): 1 µg/mL (≈ 2.14 µM)
MIC90 (E. coli): 1 µg/mL (≈ 2.14 µM)
MIC range (E. coli): 0.5 to 1 µg/mL
MIC50 (S. maltophilia): 64 µg/mL (≈ 137 µM)
MIC90 (S. maltophilia): 256 µg/mL (≈ 548 µM)
Range of MBC/MIC (S. pneumoniae): 1-2
strains against which bactericidal (S. pneumoniae): 100%
Range of MBC/MIC (P. aeruginosa [6]; CF, 8 strains): 1-4
strains against which bactericidal (P. aeruginosa [6]): 100%
Range of MBC/MIC (P. aeruginosa [6]; non-CF, 10 strains): 1-2
MBC/MIC ratios [10]: 8
MICs [11]: less than 2 μg/ml
plasma half-life [12]: 1 to 2 h
MBC/MIC (E. coli ATCC 25922): 1
MBC/MIC (S. aureus ATCC 29213 [8]): 8
MIC50 (P. aeruginosa [9]): 2 µg/mL (≈ 4.28 µM)
MIC90 (P. aeruginosa [9]; read-out: MIC90 Mucin (−)): 16 µg/mL (≈ 34.2 µM)
MIC (P. aeruginosa [9]; strain COR-003): 0.5 µg/mL (≈ 1.07 µM)
MIC (P. aeruginosa [9]; strain COR-021): 64 µg/mL (≈ 137 µM)
MIC (P. aeruginosa [9]; strain COR-027): 0.5 µg/mL (≈ 1.07 µM)
MIC (M. catarrhalis; Moraxella catarrhalis): 8 µg/mL (≈ 17.1 µM)
MIC (M. catarrhalis; strain COR-113): 8 µg/mL (≈ 17.1 µM)

In brackets after ≈: the same amount, converted by molar mass. Like-named read-outs stand apart in the source and are kept apart here.
